The whole screen tested about 230,000 compounds, of which about 3,600 (1.6%) were called active. Inconclusive results, whose numbers are uncertain, are shown with a selection of clear calls. Calls follow the shape of the dose curve; as a rule, active = well fitted inhibition curve with a large enough effect (not every such curve was filed as active); inconclusive = small, poorly fitted or top-dose-only effect, or another doubt; inactive = no such curve, though single readings can be large or run the other way. A potency beside an inconclusive call is a rough fit, not a confirmed value.
These compounds were tested against Lysine-specific demethylase 4E (Homo sapiens) (UniProt B2RXH2) (assay: qHTS Assay for Inhibitors of Human Jumonji Domain Containing 2E (JMJD2E)). Settings: JMJD2E catalytic domain, FDH-coupled NADH fluorescence (FDH is formaldehyde dehydrogenase); series mostly up to 57.1 µM; activity change, negative = inhibition: at the top concentration.
Sequence of UniProt B2RXH2 (B2RXH2 whole entry, looked up, the tested form may be a part): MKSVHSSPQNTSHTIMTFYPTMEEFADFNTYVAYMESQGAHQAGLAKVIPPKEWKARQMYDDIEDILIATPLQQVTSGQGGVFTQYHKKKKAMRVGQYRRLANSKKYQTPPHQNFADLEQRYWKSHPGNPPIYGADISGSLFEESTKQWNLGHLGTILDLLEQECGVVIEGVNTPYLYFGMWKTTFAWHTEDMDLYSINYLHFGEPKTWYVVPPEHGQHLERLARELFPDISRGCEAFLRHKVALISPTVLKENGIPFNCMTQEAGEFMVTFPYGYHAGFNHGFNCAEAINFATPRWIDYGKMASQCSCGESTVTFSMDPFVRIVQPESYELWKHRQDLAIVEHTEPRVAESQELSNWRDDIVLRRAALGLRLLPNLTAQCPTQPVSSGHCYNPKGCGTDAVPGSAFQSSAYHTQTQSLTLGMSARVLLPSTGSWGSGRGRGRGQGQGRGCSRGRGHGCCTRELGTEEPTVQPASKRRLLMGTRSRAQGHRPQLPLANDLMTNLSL
With `Cc1ccc(NC(=O)c2nccnc2C(=O)O)cc1C` the “activity change, negative = inhibition” value was inactive: -3.31%.
In the case of `COc1ccc(/C=C(/C#N)C(=O)Nc2ccccc2C)cc1C(=O)O`, the Potency is reported as inconclusive: 31.6 µM [inhibitor, single point].
For `COc1cccc(/C=C/c2ccccn2)c1O`, the Potency was inconclusive: 39.8 µM [inhibitor, single point].
With `COCCn1c(-c2ccc(C#N)cc2)nc2c1c(=O)[nH]c(=O)n2Cc1ccccc1` the Potency was inconclusive: 31.6 µM [inhibitor, partial curve].
For `CC(=O)OCCNC(=O)c1cc2ccccc2oc1=O`, the Potency was inconclusive: 28.2 µM [inhibitor, partial curve].
`O=C(Nc1ccc2oc(-c3ccccc3)nc2c1)c1ccc2c(c1)OCCO2` was tested, and the Potency was inconclusive: 28.2 µM [inhibitor, partial curve].
In the case of `COc1ccc(Nc2ncnc3ccccc23)cc1`, the “activity change, negative = inhibition” value is reported as inactive: 6.43%.
`COc1cc([C@@H]2c3cc4c(cc3[C@@H](O)[C@H]3COC(=O)[C@H]23)OCO4)cc(OC)c1O[Si](C)(C)C(C)(C)C` was tested, and the “activity change, negative = inhibition” value was inactive: -10.3%.
For `CO[C@H]1C[C@@H](O[C@@H]2[C@H](C)[C@H](O[C@@H]3O[C@@H](C)C[C@@H](N(C)C)[C@@H]3O)[C@H](C)C[C@]3(CO3)C(=O)[C@H](C)[C@H](O)[C@H](C)[C@H](C)OC(=O)[C@@H]2C)O[C@@H](C)[C@H]1O`, the “activity change, negative = inhibition” value was inactive: -8.38% [at 25.5 µM].
In the case of `COc1ccc(CCNC(=O)c2ccc(-c3ccc([N+](=O)[O-])cc3Cl)o2)cc1OC`, the “activity change, negative = inhibition” value is reported as inactive: -2.18%.
For `COc1ccccc1Nc1ncccc1C(=O)NCc1ccccc1`, the Potency was inconclusive: 35.5 µM [inhibitor, single point].
`CC(=O)c1ccc(N2CCN(C(=O)c3ccc4c(=O)n(-c5ccccc5)c(=O)[nH]c4c3)CC2)cc1` was tested, and the “activity change, negative = inhibition” value was inactive: -3.28%.
In the case of `Nc1nc2c(cnn2CCc2ccccc2)c2nc(-c3ccco3)nn12`, the Potency is reported as inconclusive: 11.2 µM [inhibitor, partial curve].
For `COc1cc(-c2nnc(-c3cccs3)o2)cc(OC)c1OC`, the Potency was inconclusive: 25.1 µM [inhibitor, partial curve].
With `Cc1ccc(-c2nc3cc(N)ccc3o2)c(C)c1` the Potency was inconclusive: 28.2 µM [inhibitor, partial curve].
`COC(=O)N/N=C\c1c(C)[nH]n(-c2ccccc2)c1=O` was tested, and the Potency was inconclusive: 39.8 µM [inhibitor, single point].
For `COC1=C(Nc2ccccc2OC)C(=O)c2ccccc2C1=O`, the Potency was inconclusive: 14.1 µM [inhibitor, partial curve].
For `COc1ccc(C(=O)NC(=S)N2CCCc3ccccc32)cc1OC`, the Potency was inconclusive: 35.5 µM [inhibitor, single point].
`CCCCn1c(O)c(N=NC(=O)c2ccncc2)c2cc(Br)ccc21` was tested, and the “activity change, negative = inhibition” value was inactive: 12.7%.
`COC(=O)c1sccc1NC(=O)c1ccc2c(c1)OCO2` was tested, and the Potency was inconclusive: 5.62 µM [inhibitor, single point].
For `COc1cc(/C=C(/C#N)c2nc3ccccc3[nH]2)ccc1OC(=O)c1ccco1`, the Potency was inconclusive: 25.1 µM [inhibitor, partial curve].
`CS(=O)(=O)NNC(=O)c1cc2cc3ccccc3nc2s1` was tested, and the Potency was inconclusive: 28.2 µM [inhibitor, partial curve].
For `N#CC1=C2SCN(Cc3ccccc3)CN2C(=O)CC1c1cccs1` (stereo not given), the Potency was inconclusive: 39.8 µM [inhibitor, single point].
`CC1=C(C(=O)N(C)C)C(c2ccc(C)s2)NC(=S)N1` (stereo not given) was tested, and the “activity change, negative = inhibition” value was inactive: -6.87%.
`COc1cccc(C2C(C(C)=O)=C(O)C(=O)N2CCNCCO)c1` (stereo not given) was tested, and the “activity change, negative = inhibition” value was inactive: 0.287%.
In the case of `CCOC(=O)c1cnc2cc(Cl)c(OC)cc2c1NCC1CCCO1` (stereo not given), the Potency is reported as inconclusive: 31.6 µM [inhibitor, single point].
With `Cn1c(N2CCCCC2)nc2c1c(=O)[nH]c(=O)n2C` the “activity change, negative = inhibition” value was inactive: -1.53%.
For `Cc1ccc(OCC(=O)Nc2ccc(N(C)C)cc2)cc1`, the “activity change, negative = inhibition” value was inactive: 4.67%.
`COC(=O)N1C2=C(c3ccccc3[C@@H]1CC(=O)Nc1ccc(Br)cc1)[C@@H]1C(=O)N(c3ccccc3)C(=O)[C@@H]1[C@H](C)C2` was tested, and the activity change, negative = inhibition was inactive: -1.13% [at 11.4 µM].
With `COC(=O)C1=C(C)N(Cc2ccc(C)cc2)C(=O)/C1=C\c1ccc(O)c(OC)c1` the “activity change, negative = inhibition” value was inactive: -27.5%.
In the case of `COc1cc(/C=C2\SC(c3ccc(C)cc3)=NC2=O)cc(OC)c1OC`, the “activity change, negative = inhibition” value is reported as inactive: -8.25%.
In the case of `O=C(CCNc1ccccc1)c1ccc2c(c1)OCO2`, the “activity change, negative = inhibition” value is reported as inactive: -0.959%.
With `Cc1nc2c(c(=O)n1Cc1ccccc1Cl)c1nc3ccccc3nc1n2Cc1ccco1` the Potency was inconclusive: 31.6 µM [inhibitor, partial curve].
In the case of `O=c1cc(-c2ccc(Cl)cc2)[nH]c2ccccc12`, the Potency is reported as inconclusive: 39.8 µM [inhibitor, single point].
For `Nc1nnc(-c2cn(-c3ccccc3)nc2-c2ccc(Cl)cc2)o1`, the Potency was inconclusive: 35.5 µM [inhibitor, single point].
In the case of `COc1cccc(Oc2nc(-c3ccncc3)nc3ccccc23)c1`, the Potency is reported as inconclusive: 7.08 µM [inhibitor, full curve].
`Brc1ccc(Nc2ncnc3[nH]ncc23)cc1` was tested, and the “activity change, negative = inhibition” value was inactive: 7.38%.
In the case of `COc1cccc(Oc2ccc(C(F)(F)F)cc2NC(=O)c2cccc(F)c2)c1`, the Potency is reported as inconclusive: 39.8 µM [inhibitor, single point].
In the case of `CCOc1cc(N2CCOCC2)c(OCC)cc1NC(=O)c1ccc(C)cc1`, the Potency is reported as inconclusive: 35.5 µM [inhibitor, single point].
`CS(=O)(=O)Nc1ccc2c3c(cccc13)CC2` was tested, and the Potency was inconclusive: 31.6 µM [inhibitor, partial curve].
With `COc1ccc(Nc2nc3ccccc3c(=O)s2)c(OC)c1` the “activity change, negative = inhibition” value was inactive: 3.38%.
With `CCN(CC)CCN1C(=O)c2ccccc2NC1c1ccc(N(C)C)cc1` (stereo not given) the Potency was inconclusive: 12.6 µM [inhibitor, partial curve].
`Cc1cc(-c2nc(C)c(-c3nnc(SCC(=O)Nc4ccc(Cl)cc4)n3C)s2)no1` was tested, and the Potency was inconclusive: 11.2 µM [inhibitor, partial curve].
In the case of `CCn1ccnc1CNC(=O)CC1C(=O)NCCN1Cc1ccc(OC)cc1OC` (stereo not given), the Potency is reported as inconclusive: 31.6 µM [inhibitor, single point].
For `O=C(CN1CCC(C(=O)c2ccc(F)cc2)CC1)Nc1ccc(F)cc1`, the “activity change, negative = inhibition” value was inactive: 10.8%.

From PubChem BioAssay AID2147 (National Center for Advancing Translational Sciences (NCATS), 2009)
Also: nearly all actives have a fitted effect of over 50% in size.
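For activity change, negative = inhibition in this document: 0% = wells with enzyme and -100% = buffer wells without enzyme.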
Potency is read from the fitted curve at half-maximal effect; tags tell the direction and shape of the fitted curve.
